Measured values taken from PMC4336329 (PLoS ONE, 2015).
Screen size: about 310,000 compounds; about 14,000 (4.5%) showed an effect of 50% or more. Effects have a minus sign here. Some of the results follow.

Biological target: human ether-à-go-go-related gene (hERG) potassium channel (human, UniProt Q12809)
Experiment: primary screen, population patch clamp on CHO cells stably expressing hERG
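Also: peak tail current of the secondary pulse compared with the same well before compound.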

human ether-à-go-go-related gene (hERG) potassium channel, sequence (Q12809 whole entry, looked up): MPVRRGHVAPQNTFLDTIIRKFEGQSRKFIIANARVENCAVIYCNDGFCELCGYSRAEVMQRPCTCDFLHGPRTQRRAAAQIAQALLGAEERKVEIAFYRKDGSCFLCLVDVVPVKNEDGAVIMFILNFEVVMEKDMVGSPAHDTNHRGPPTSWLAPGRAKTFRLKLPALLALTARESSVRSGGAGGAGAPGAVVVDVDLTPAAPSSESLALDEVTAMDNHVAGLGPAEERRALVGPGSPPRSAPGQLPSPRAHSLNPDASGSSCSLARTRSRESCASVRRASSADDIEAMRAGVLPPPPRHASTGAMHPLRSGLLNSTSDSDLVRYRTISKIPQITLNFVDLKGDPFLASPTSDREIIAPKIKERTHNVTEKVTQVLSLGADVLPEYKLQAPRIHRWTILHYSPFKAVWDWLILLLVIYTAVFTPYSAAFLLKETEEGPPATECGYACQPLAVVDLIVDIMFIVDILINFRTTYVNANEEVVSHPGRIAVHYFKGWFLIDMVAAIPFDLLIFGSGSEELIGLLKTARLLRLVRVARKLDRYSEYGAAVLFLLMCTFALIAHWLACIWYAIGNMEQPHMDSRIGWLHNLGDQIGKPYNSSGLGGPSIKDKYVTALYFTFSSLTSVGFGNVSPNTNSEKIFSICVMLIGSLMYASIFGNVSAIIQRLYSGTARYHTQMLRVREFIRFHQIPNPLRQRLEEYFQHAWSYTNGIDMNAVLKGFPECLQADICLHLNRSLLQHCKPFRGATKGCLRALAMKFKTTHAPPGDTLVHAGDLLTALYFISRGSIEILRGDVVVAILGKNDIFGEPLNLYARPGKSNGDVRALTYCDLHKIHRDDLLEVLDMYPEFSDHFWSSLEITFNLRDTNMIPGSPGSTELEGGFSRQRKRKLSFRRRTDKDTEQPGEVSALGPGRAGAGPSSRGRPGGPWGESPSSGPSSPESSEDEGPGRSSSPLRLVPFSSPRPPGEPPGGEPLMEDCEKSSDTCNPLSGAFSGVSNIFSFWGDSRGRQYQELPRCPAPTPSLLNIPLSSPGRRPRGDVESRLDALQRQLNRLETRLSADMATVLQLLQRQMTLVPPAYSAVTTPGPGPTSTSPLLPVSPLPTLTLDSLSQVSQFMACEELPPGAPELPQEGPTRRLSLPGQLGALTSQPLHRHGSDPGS

Row | SMILES | hERG current change (%, negative = inhibition) at 10uM [%]
1 | CCN1CCc2c(sc(NC(=S)NC(=O)c3ccco3)c2C(N)=O)C1 | 2.95
2 | CCC1=Nc2cc(C(=O)NCC3CCCO3)ccc2Sc2ccc(Cl)cc21 (stereo not drawn) | -15.5
3 | CCOc1ccc(Oc2ccc(Cl)cc2NC(=O)CCNC(C)=O)cc1 | 12.7
4 | Cc1cccc(S(=O)(=O)Nc2nc3ccccc3nc2NCc2ccc3c(c2)OCO3)c1 | 24.6
5 | CN(C)c1cccc2c(S(=O)(=O)Nc3ccccn3)cccc12 | 6.16
6 | O=C(CSc1nnnn1C1CCCCC1)NCCc1ccccc1 | -16.2
7 | CCCOc1ccccc1C(=O)N(Cc1cccc(Br)c1)C1CCS(=O)(=O)C1 (stereo not drawn) | -35.4
8 | CC(C(=O)NCC1CCCO1)N(C(=O)c1snc(C(N)=O)c1N)c1cccc(F)c1 (stereo not drawn) | -2.06
9 | COc1ccc(CNC(=O)C2CCN(S(=O)(=O)N3CCCCC3)CC2)c(OC)c1 | 4.43
10 | Cc1ccc(S(=O)(=O)N2C(=O)CCC2C(=O)O/N=C(\N)c2cccc([N+](=O)[O-])c2)cc1 (stereo not drawn) | -32.7
11 | Cc1ncc(CO)c(CNc2ccc(Oc3ccccc3)cc2)c1O | -13.7
12 | CCOC(=O)c1ccc(NC(=O)CSc2nnc(COc3ccccc3OC)n2CC)cc1 | -1.5
13 | CS(=O)(=O)N(CC(N)=O)c1cccc(Br)c1 | 9.26
14 | COc1ccc(N(CC(=O)NCCSc2ccccn2)S(=O)(=O)c2ccccc2)cc1Cl | -19.6
15 | CCCOc1ccc(CNC(=S)Nc2ccccc2)cc1Cl | 16.5
16 | Cc1cccn2c(=O)nc(SCC(=O)N3CC(C)OC(C)C3)nc12 (stereo not drawn) | 1.96
17 | CCn1cc(C(=O)NCc2cccc(C(F)(F)F)c2)c(=O)c2ccc(C)nc21 | 2.71
18 | CCc1c(C)sc(NC(=O)c2cc(-c3ccco3)on2)c1C#N | 16.9
19 | O=C1NC(=S)N(c2ccc(Cl)cc2)C(=O)/C1=C/N1CCN(C(=O)c2ccco2)CC1 | 7.25
20 | O=C(NNc1ccc(Cl)cc1)c1sccc1Cl | 0.717
21 | CCOC(=O)NCc1ccc2[nH]c(C)cc2c1 | 22.5
22 | COc1ccccc1NC(=O)N1CCCC1C(=O)NCC1CCCO1 (stereo not drawn) | 4.03

Row | SMILES | hERG current change (%, negative = inhibition) at 10uM [%]
23 | CCS(=O)(=O)Nc1ccc(Cc2ccncc2)cc1 | -0.00702
24 | Cc1cccc(NC(c2ccc(O)cc2)c2ccc3ccc(C)nc3c2O)n1 (stereo not drawn) | 27.9
25 | O=C(O)c1cccc(-n2cccc2/C=C2\SC(=O)N(Cc3ccccc3F)C2=O)c1 | 4.94
26 | O=C(CN1CCN(c2ccc(F)cc2)CC1)NCc1ccc(Cl)cc1 | -62.7
27 | CCCS(=O)(=O)N1CCC(C(=O)NC2CCCC(C)C2C)CC1 (stereo not drawn) | 7.15
28 | CC(C)Cc1cc(C(=O)Nc2cc(Cl)ccc2Cl)no1 | 14.9
29 | CCC1CCCCN1C(=S)Nc1ccc(C(C)=O)cc1 (stereo not drawn) | -0.512
30 | CCCC(C)NC(=O)C1CCN(C(=O)C2CC(=O)N(c3ccc(C)cc3)C2)CC1 (stereo not drawn) | -3.88
31 | COc1ccccc1CN1C[C@@H]2C[C@@H](c3ccc(Cl)cc3)N3CCC[C@@]23C1=O | -44.1
32 | CCc1nn(C)c(N)c1C.Cl | 12.7
33 | CCOC(=O)c1c(NC(=O)CN2CCCCC2)sc2c1CCN(C(=O)OCC)C2 | -10.9
34 | O=C(Nc1ccccn1)C12CC3CC(CC(C3)C1)C2 | -15
35 | Cc1ccc(NC(=S)NNc2ncc(C(F)(F)F)cc2Cl)cc1 | 5.27
36 | CSCCC(NC(=O)c1ccc(Cl)cc1Cl)C(=O)OCC(N)=O (stereo not drawn) | -5.4
37 | CSc1nsc(SC)c1C(=O)O | 30.5
38 | CCOC1OC(=O)C(Cl)=C1Nc1ccc(C)cc1C (stereo not drawn) | -0.98
39 | O=C1/C(=N\S(=O)(=O)c2cccs2)C([n+]2cccc(Cc3ccccc3)c2)=C([O-])c2ccccc21 | 1.93
40 | COC(=O)c1c(N)sc(C(=O)NCCc2ccccc2)c1C | 4.54
41 | O=C(N/N=C/c1ccc(O)c(O)c1)N/N=C/c1ccc(O)c(O)c1 | 7.82
42 | Cc1[nH]c(=O)[nH]c(=O)c1/C=N/NC(=O)[C@@H](NC(=O)OC(C)(C)C)C(C)C | -0.509
43 | Cc1[nH]c2ccccc2c1/C=C/c1nc2ccccc2c(=O)n1-c1ccc([N+](=O)[O-])cc1 | 5.88
44 | CC(C)Oc1ccc(N2CC(C(=O)Nc3ccc4c(c3)OCO4)CC2=O)cc1 (stereo not drawn) | 2.72

Row | SMILES | hERG current change (%, negative = inhibition) at 10uM [%]
45 | CC(CCc1ccccc1)NC(=O)CCC1CCCC1 (stereo not drawn) | -24.5
46 | CSc1nsc(SCC(=O)Nc2c(C)n(C)n(-c3ccccc3)c2=O)n1 | 2.25
47 | CCOC(=O)C1CCCN(C(=O)c2cc(-c3ccc(C)cc3)nc3ccccc23)C1 (stereo not drawn) | -37.6
48 | Br.C=CCn1c(=N)n(CC(=O)c2ccc(OC)cc2)c2ccccc21 | -43.7
49 | COc1ccc(-c2cc(C(F)(F)F)nc(SCC(=O)Nc3cc(C)on3)n2)cc1OC | 10
50 | CCCOc1ccc(C(=O)NNC(=S)NC(=O)c2cc(-c3ccc(Cl)cc3)nc3ccccc23)cc1 | 5.85
51 | Cc1cc(Cl)ccc1OCC(O)CN1C(C)CCCC1C.Cl (stereo not drawn) | -73.2
52 | Cc1cc(C)c(C#N)c(SCC(=O)Nc2ccc(S(=O)(=O)Nc3ncccn3)cc2)n1 | 9.15
53 | CCN(CC)C(=O)Oc1ccccc1NC(C)=O | 11.2
54 | O=C(Nc1ccccc1C(=O)O)c1cccc(NC(=O)c2ccco2)c1 | 20.8
55 | Cc1ccc(S(=O)(=O)N2CCOC23CCN(S(=O)(=O)c2c(C)cc(C)cc2C)CC3)cc1 | -3.06
56 | Cc1[nH]c2ccccc2c1C(=O)CN1C(=O)C(=O)N(C2CCCC2)C1=O | 5.99
57 | CC(C)Oc1ccc(CN2CCC(n3nccc3NC(=O)c3cccnc3)CC2)cc1 | -70.4
58 | CN(C)C(=O)C(NC(=O)c1ccccc1)=C(Cl)Cl | 24.4
59 | CC12CC3CC(C)(C1)CC(N)(C3)C2.O=[N+]([O-])O | -2.79
60 | O=C(C1CCCC1)N1CCN(S(=O)(=O)c2ccc(Cl)cc2)CC1 | -3.87
61 | O=c1ccc(/C=C/c2ccccc2)nn1Cc1ccc(Cl)cc1Cl | 8.47
62 | CN(C)S(=O)(=O)c1ccc(NC(=O)COC(=O)CC2CC3CCC2C3)cc1 (stereo not drawn) | -9.56
63 | CCCCN(C)CC(O)Cn1cc(/C=C/C(=O)c2cccs2)c2ccccc21 (stereo not drawn) | -33.7
64 | CCc1ccc(NC(=O)COC(=O)C2(c3ccc(Cl)cc3)CCCC2)cc1 | 11.4
65 | CN1CCc2c(sc3nc(NN)n(Cc4ccccc4)c(=O)c23)C1 | 2.12
66 | Cc1ccc(-c2noc(CCC(=O)Nc3cc(C)ccn3)n2)cc1 | 9.8

Row | SMILES | hERG current change (%, negative = inhibition) at 10uM [%]
67 | CC(C)Cn1c(/C=C/c2ccco2)nc2ccccc21 | 5.62
68 | COc1cccc(OC)c1CNC(=O)CCSCc1ccccc1F | -28.6
69 | O=c1oc2cc(Oc3c([N+](=O)[O-])cc(C(F)(F)F)cc3[N+](=O)[O-])ccc2c2c1CCCC2 | 1.74
70 | CSc1ncccc1C(=O)N1CCN(S(=O)(=O)c2ccccc2)CC1 | 19.8
71 | O=S(=O)(Nc1cccc(-c2cn3c(n2)SCC3)c1)c1ccc(F)cc1F | -4.11
72 | CCOC(=O)C(C)Sc1ncnc2nc[nH]c12 (stereo not drawn) | -5.74
73 | O=C1c2ccccc2C(=O)N1Cc1cc(-c2ccccc2)no1 | 4.92
74 | O=C(Nc1ccc2c(c1)Cc1ccccc1-2)c1ccco1 | -2.2
75 | Cl.OC(CNC1CCCC1)COc1ccc(-c2ccccc2)cc1 (stereo not drawn) | -51.8
76 | Cc1ccc2nc(C)cc(N/N=C/c3ccccc3O)c2c1 | 2.38
77 | Cc1ccc(SCCCn2cnc3ccccc3c2=O)cc1 | -49.8
78 | Cc1ccc(OCCNC(=O)c2ccc(C)o2)cc1 | -9.65
79 | CCOC(=O)N1CCN(C(=O)c2cccc(N3C(=O)NC4CC3(C)Oc3ccccc34)c2)CC1 (stereo not drawn) | 6.28
80 | Cc1cc(C)cc(OCC(=O)OCC(=O)c2ccc3c(c2)NC(=O)CO3)c1 | 17.4
81 | CC(=O)OCC[C@H](NS(=O)(=O)OCC(Cl)(Cl)Cl)c1ccccc1 | 1.61
82 | COc1ccc(OCCNC(=O)c2cccc(Oc3ccc(C(F)(F)F)cc3[N+](=O)[O-])c2)cc1 | 10.7
83 | O=C(CNCc1cccs1)Nc1ccc(N2CCCCCC2)cc1.O=C(O)C(=O)O | -24.6
84 | CCc1cc2c(=O)[nH]c(N3CCCC3)nc2s1 | 4.77
85 | CCCN(CC(=O)Nc1ccccc1OC)C(=O)c1cc(-c2cccs2)nn1-c1ccccc1 | -9.02
86 | COc1ccc2c(c1)c(=O)oc1cc(OCC(=O)N3CCC(C)CC3)ccc12 | 0.938
87 | CCN1CCN(c2ccc(S(=O)(=O)N3CCCCC3)cc2NC(=O)c2ccccc2)CC1 | -46
